Test results published in the RNAGym collection of RNA variant scans (doi:10.1073/pnas.2313332121).
Variants at the background level are over-represented here.

B1: TPR 5TU (parent)
chain: GGAUCUUCUCGAUCUAACAAAAAAGACAAAUCUGCCACAAAGCUUGAGAGCAUCUUCGGAUGCAGAGGCGGCAGCCUUCGGUGGCGCGAUAGCGCCAACGUUCUCAACUAUGACACGCAAAACGCGUGCUCCGUUGAAUGGAGUUUAUCAUG

Variants of: B1
Assay: polymerase ribozyme fitness, log enrichment relative to wild type (log ratio); higher = more active; in vitro selection for triplet polymerase activity
Summary of the method: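 The heterodimeric triplet polymerase ribozyme's subunits were each mutagenized into PCR-built libraries and transcribed. Every library was selected once, in triplicate, by annealing with a biotinylated primer, the partner subunit and triplets, incubating frozen at −7 °C, gel-excising extended constructs, capturing on streptavidin beads and running RT-PCR. Input and output libraries were Illumina-sequenced, with genotypes kept only at ≥10 input reads and ≥1 read per output. Fitness, from inverse-variance-weighted replicate averages, is the base-2 logarithm of genotype enrichment over wild-type enrichment.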

| Variant | polymerase ribozyme fitness (log ratio) |
| --- | --- |
| GGAUCUUCUCGAUCUAACAAUAAAUACAAAUCUGCCACAAAGCUUGAGAGCAUCUUCGGAUGCCGAGGCGGCAGCCUUCGGUGGUGCGAUAGCGCCAACGUUCUCAACUAUGACACGCAAAACGCGUGCUCCGUGGAAUGGAGUUUAUCAUG | ≤ -4.2 |
| GGAUCUUCUCGAUCUAACAAUAAAAACAAAUCUGCCACAAAGCUUGAGAGCAUCUUCGGAUGCAGAGGCGGCAGCCUUCGGUGGCGCGCUAGCGCCAACGUUCUCAACUAUGACACGCAAAACGCGUGCUCCGUUGAAUGGAGUUUAUCAUG | -3.68 |
| GGAUCUUCUCGAUCUAACAAUAAAGACAAAUCUGCCACAAAGCUUGCGAGCAUCUUCGGAUGCAGGGGCGGCAGCUUUCGGUGGCGCGAUAGUGCCAACGGUCUCAACUAUGACACGCAAAACGCGUGCUCCGUUGAAAGGAGUUUAUCAUG | ≤ -4.2 |
| GGAUCUUCUCGAUCUAACAAUAAAGACAAAUCUGCCACAAAGCUUGAGAGCAUCUUAGGAUGCAGAGGCGGCAGCCCUCGGUGGCGCGAUAGCGUAAACGUUGUCAAGUAUGACACGCAAAACGCGUGCUCCGUUGAAUGGAGUUUAUCAUG | ≤ -4.2 |
| GGAUCUUCUCGAUCUAACAAUAAAGACAAAUCUGCAACACAGCUUGAGAGCAUCUUCGGAUGCAGAGGCGGCAGCCUUCGGUGGUGCGAUAGCGCCAAAGUUCUCAACUAUGACACGCAAAACGCGUGCUCCGUUGAAUGGAAUUUAUCAUG | ≤ -4.2 |
| GGAUCUUCUCGAUCUAACAAUAAAGACAAAUCUGCCACAAAGAUUGAGAGCAACUUCGGCAGCAGAGGCGGCAGCAUUCGGUGGCGUGAUAGCGGCAACGUUCUCAACUAUGACACGCAAAACGCGUGCUCCGUUGAAUGGAGUUCAGCAUG | ≤ -4.2 |
| GGAUCUUCUCGAUCUAACAAUAAAGACAAAUCUGCCACACAGCUUGAGAGCAUCUUCGGAUGCAGAGGCGGCAGCCUUCGGUGGCGCGAUAGCGCCAACGUUCUCAACUAUGACACGCAAAACGCGUGCUCCGUUGAAUGGAGUUUAUCAUG | 1.56 |
| GGAUCUUCUCGAUCUAACAAUAAAGAGAAAUCUGCCACAAAGCUUGAGAGCAUCUUCGGAUGCAGAGGCGGCAGCCUUCGGUGGCGCGAUAGAGCCAACGUUCUCAACUAUGAUACGCAAAACGCGUGCUCCGUUGAAUGUAGUUUAUCAUG | ≤ -4.2 |
| GGAUCUUCUCGAUCUAACAAUAAAGACAAAUCUGCCACAAAGCUUGAGAGCAUCUUCGGAUGCAGAGGCGGCAGCCUUCGGUGGCGGGAUAGCGCCAACGUUCUCAACUAUGACACGCAAAACGCGUGCUCCGUUGAAUGGAGUUUAUCAUG | ≤ -4.2 |
| GGAUCUUCUCGAUCUAACAAUAAAGACAAAUCUGCCACAAAGCUUGAGAGCAUCUUCGGAUGCAGAGGCGGCAGCCUUCGGUGGCGUGAUAGCGCCAACGUUCUCAACUAUGACACGCAAAACGCGUGCUCCGUUGAAUGGAGUUUAUCAUG | -0.254 |
| GGAUCUUCUCGAUCUAACAAUAAAGACAAAUCUGCCACAAAGCUUGAGAGCAUCUUCGGAUGCAGAGGCGGUAGCCUUCGGUGGCGCGAUAGCGCCAACGUUCUCAACUAUGACACGCAAAUCGCGUGCUCCGUUGAAUGGAGUUUAUCAUG | -0.472 |
| GGAUCUUCUCGAUCUAACAAUAAAGACAAAUCUGCCACAAAGCUUGAGAGCAUCUUCGGAUGCAGAGGCGGCAGCCUUCGGUGGCGAGAUAGCGCAAAGGUUCUCAACUAUGACACGCAAAACGUGUGCUCCGUUGAAUCGAGUUUAUCAUG | ≤ -4.2 |
| GGAUCUUCUCGAUCUAACAAUAAAGACAAAUAUGCAACAAAACUUGAGAUCAUCUUCGGAUGAAGAGGCAGCAGCCUUCGGUGGCGCGAUAGCUCCAAGGUUCUCAACUAUGACACGGAAAACGCGUGCUCCGUUGAAUGGAGUUUAUCAUG | ≤ -4.2 |
| GGAUCUUCUCGAUCUAACAAUAAAGACAAAUCUGCCACAAACCUUGAGAGCAUCUUCGGAUGCAGAGGCGGCAGCCUUCGGUAGCGCGAUAGCGCCAACGUUCUCAACGAUGACACGCAAAACGCGUGCUCCGUUGAAUGGAGUUUAUCAGG | ≤ -4.2 |
| GGAUCUUCUCGAUCUAACAAUAAAGACAAAUCUGCCAAAAAGCUUGAGAGCAUCUUCGGAUGCAGAGGCGGCAGCCUUCGAUGGCGCGAUAGCGCCAACGUUCUCAACUAUGACACGCAAAACGCGUGCUCCGUUGAAUGGAGUUUAUCAUG | 0.0427 |
| GGAUCUUCUCGAUCUAACAAUAAAGACAAAUCUGCCACAAAGCUUGAGAGCAUCUUCGGAUGCAGAGGCGGCAGACUUCGGUGGCGCGAUAGCGCCAGCGAUGUCAACUAUGACACGCAAAACGCGUGCUCCGUUGAAUGGAGUUUAUCAUG | ≤ -4.2 |
| GGAUCUUCUCGAUCUAACAAUAAAGACAAAUCUGCCACAAAGCUUGAGAGCAUCUUCGGAUGCAGAGGCGGCAGCCUUCGGUGGCGCGAUAGCGACAACGUUCUCAACUAUGACACGCAAAACGCGUGCUCCGUUGAAUGGAGUUGAUCAUG | -0.389 |
| GGAUCUUCUCGAUCUAACAAUAAAGACAAAUCUGCCACAAAGCUUGAGAGCAUCUUCGGAUGCAGAGGAGGCAGCCUUCGGUGGCGCUAUAGCGCCCACGUUCUCAACUAUGACACGCAAAACGCGUGCUCCGUUGAAUGGAGUUUAUCAUG | ≤ -4.2 |
| GGAUCUUCUCGAUCUAACAAUAAAGACAAAUCUGCCACAAAGCUUGAGAGCAUCUUCGGAUGCAGAGGCGGCAGCCUUCGGUGGCGCGAUAGCGCGAACGUUCUCAACUAUGACACGCAAAACGCGUGCUCCGUUGAAUGGAGUUUAUCAUG | -0.697 |
